The values below are quoted from earlier work in publication PMC11006913.

Some of the results follow.

Holding throughout (conditions): PBM; conditions not shown; double strand, one strand shown; scale: upbm affinity estimate (log intensity, higher = more binding, comparable within an allelic series)
Data set [1] deals with NKX2-5 K183E (Homo sapiens) (UniProt P52952).
The target in data set [2] is NKX2-5 R161P (Homo sapiens) (UniProt P52952).
Data set [3] concerns the target NKX2-5 R190C (Homo sapiens) (UniProt P52952).

In the case of CCACTCAA [8-mer CCACTCAA], the binding signal in data set [1] was 11.6; in data set [2], 12.5; in data set [3], 10.8.

As to AACCAAGC [8-mer AACCAAGC], the binding signal in data set [1] is 10.3; in data set [2], 10.5; in data set [3], 10.4.

In the case of CACTTTAA [8-mer CACTTTAA], the figures for the binding signal in data set [1], in data set [2] and in data set [3] were 11.5, 12.5 and 10.9, respectively.

As to GGTACTTA [8-mer GGTACTTA], the binding signal in data set [1] is 11.2; in data set [2], 13; in data set [3], 10.7.
